# Results published in the supplement of paper PMC9446081.
# In all, about 39,000 compounds went through this assay and about 220 (0.56%) showed activity. The list shows a part of the results.
# System: Escherichia coli K-12 BW25113
# Experiment: relative growth (OD600 normalised to plate interquartile mean) (fraction); higher = less growth inhibition, active = 0.2 or less
# Settings: 50 µM; LB; incubation time: overnight (16-24 h)
# 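Further: static incubation at 37 °C against the wild-type strain, values averaged over two biological replicates.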
row,SMILES,relative growth
1,COc1ccc(S(=O)(=O)Nc2ccc3c(c2)CC(=O)N([C@@H](C)CO)C[C@@H](C)[C@@H](CN(C)S(=O)(=O)c2c(C)noc2C)O3)cc1,inactive: 1.02
2,O=C(C[C@H]1C=C[C@@H](NC(=O)c2cccnc2)[C@@H](CO)O1)NCCN1CCCCC1,inactive: 1.02
3,CC(C)NC(=O)Nc1ccc2c(c1)C(=O)N([C@@H](C)CO)C[C@@H](C)[C@H](CN(C)C(=O)Nc1ccc(C(F)(F)F)cc1)OCCCC[C@@H](C)O2,inactive: 1.03
4,O=C1CN(S(=O)(=O)Cc2ccccc2)C[C@H]2[C@H](c3ccc(C#Cc4ccc(F)cc4)cc3)[C@@H](CO)N12,inactive: 0.965
5,C[C@H]1CN([C@@H](C)CO)C(=O)c2cccc(NC(=O)C3CCOCC3)c2O[C@@H]1CN(C)C(=O)Nc1ccc2c(c1)OCO2,inactive: 1.03
6,C[C@H](CO)N1C[C@H](C)[C@H](CN(C)C(=O)c2ccncc2)Oc2ncc(-c3ccc(C(=O)N(C)C)cc3)cc2C1=O,inactive: 0.98
7,CN(C)CCC(c1ccccc1)c1ccccn1.O=C(O)C=CC(=O)O (configuration not stated),inactive: 0.966
8,Nc1nc(N)c2nc(-c3ccccc3)c(N)nc2n1,inactive: 0.805
9,C[C@H]1CN([C@@H](C)CO)C(=O)c2c(c3ccccc3n2C)-c2ccccc2CO[C@H]1CN(C)C(=O)Nc1ccc2c(c1)OCO2,inactive: 1.03
10,C[C@H](CO)N1C[C@H](C)[C@H](CN(C)Cc2ccc(Oc3ccccc3)cc2)Oc2ccc(NC(=O)Nc3ccc(F)cc3)cc2CC1=O,inactive: 1.07
11,NCc1cc2ccccc2s1,inactive: 0.994
12,C[C@H](CO)N1C[C@H](C)[C@H](CN(C)S(=O)(=O)c2cn(C)cn2)Oc2ncc(C3=CCCCC3)cc2C1=O,inactive: 0.998
13,O=C(O)[C@H]1O[C@@H](Oc2c(-c3ccc(O)c(O)c3)oc3cc(O)cc(O)c3c2=O)[C@H](O)[C@@H](O)[C@@H]1O,inactive: 0.956
14,C[C@H]1CN([C@@H](C)CO)C(=O)c2cccc(NC(=O)C3CCCCC3)c2O[C@H]1CN(C)Cc1ccc(-c2ccccc2)cc1,inactive: 0.993
15,C[C@@H]1CCCCO[C@H](CN(C)C(=O)CCCN(C)C)[C@@H](C)CN([C@@H](C)CO)C(=O)c2cc(N(C)C)ccc2O1,inactive: 1
16,C[C@H]1CN([C@@H](C)CO)C(=O)c2cccc(NC(=O)CCCCCC(=O)Nc3ccccc3N)c2O[C@@H]1CN(C)C(=O)Nc1ccccc1,inactive: 1
17,C[C@@H]1CCCCO[C@@H](CN(C)C)[C@H](C)CN([C@H](C)CO)C(=O)c2cc(NC(=O)CCCCCC(=O)Nc3ccccc3N)ccc2O1,inactive: 1.03
18,COc1cccc(C(=O)Nc2ccc3c(c2)C(=O)N(C)[C@H]2CC[C@H](CC(=O)NCCCN4CCOCC4)O[C@H]2CO3)c1,inactive: 1.01
19,C[C@H](CO)N1C[C@H](C)[C@@H](CN(C)C(=O)C2CCOCC2)Oc2ncc(C#Cc3ccccc3F)cc2C1=O,inactive: 1

row,SMILES,relative growth
1,CC(C)NC(=O)Nc1ccc2c(c1)C(=O)N([C@H](C)CO)C[C@@H](C)[C@@H](CN(C)C(=O)NC1CCCCC1)O2,inactive: 1
2,CO[C@H]1C[C@@H](C[C@@H](C)[C@H]2CC(=O)[C@H](C)/C=C(\C)[C@@H](O)[C@H](OC)C(=O)[C@H](C)C[C@H](C)/C=C/C=C\C=C(C)[C@H](OC)C[C@@H]3CC[C@@H](C)[C@@](O)(O3)C(=O)C(=O)N3CCCC[C@H]3C(=O)O2)CC[C@H]1OC(=O)C(C)(CO)CO,inactive: 0.951
3,C[C@@H]1CN([C@H](C)CO)C(=O)c2cc(NC(=O)Nc3ccc(C(F)(F)F)cc3)ccc2O[C@H]1CN(C)Cc1ccc(-c2ccccc2)cc1,inactive: 1.02
4,Cc1ccc(S(=O)(=O)Nc2ccc3c(c2)C(=O)N([C@H](C)CO)C[C@@H](C)[C@@H](CN(C)CC2CCCCC2)OCCCC[C@H](C)O3)cc1,inactive: 0.987
5,C[C@@H]1CN([C@@H](C)CO)C(=O)c2cc(NS(=O)(=O)c3ccccc3)ccc2O[C@@H](C)CCCCO[C@@H]1CN(C)CC1CCCCC1,inactive: 0.973
6,C[C@@H](O)Cn1cnc2c1c(=O)n(C)c(=O)n2C,inactive: 1
7,C[C@@H]1CN([C@H](C)CO)S(=O)(=O)c2ccc(-c3ccccc3F)cc2O[C@H]1CN(C)Cc1cncnc1,inactive: 0.994
8,C[C@@H]1CN([C@@H](C)CO)C(=O)c2cc(NC(=O)Nc3cccc4ccccc34)ccc2O[C@H]1CN(C)S(=O)(=O)c1cccs1,inactive: 0.894
9,C[C@@H]1CN([C@H](C)CO)C(=O)Cc2cc(NS(C)(=O)=O)ccc2O[C@H]1CN(C)S(=O)(=O)c1cn(C)cn1,inactive: 1.01
10,CO[C@@H]1CN(C)C(=O)c2cc(NC(=O)Nc3ccccc3)ccc2OC[C@@H](C)N(C(=O)CN(C)C)C[C@@H]1C,inactive: 0.99
11,C=CCC1C=C(C)CC(C)CC(OC)C2OC(O)(C(=O)C(=O)N3CCCCC3C(=O)OC(C(C)=CC3CCC(O)C(OC)C3)C(C)C(O)CC1=O)C(C)CC2OC (configuration not stated),inactive: 0.932
12,COc1cccc(S(=O)(=O)N(C)C[C@@H]2Oc3ncc(-c4ccccc4)cc3C(=O)N([C@H](C)CO)C[C@@H]2C)c1,inactive: 1
13,NC(=O)N1C(=O)[C@H]2[C@H](C1=O)[C@H]1C=C(CCCO)[C@@H]2[C@@H](C2CC2)N1Cc1cc2c(cc1Br)OCO2,inactive: 1.02
14,COc1cccc(S(=O)(=O)Nc2ccc3c(c2)C(=O)N(C)C[C@@H](OC)[C@H](C)CN(C(=O)Cc2cccnc2)[C@H](C)CO3)c1,inactive: 0.975
15,Cc1ccc(S(=O)(=O)N(C)C[C@H]2OCCCC[C@@H](C)Oc3ccc(NC(=O)NC4CCCCC4)cc3C(=O)N([C@H](C)CO)C[C@H]2C)cc1,inactive: 1.04
16,COc1ccccc1C#Cc1cnc2c(c1)C(=O)N([C@@H](C)CO)C[C@@H](C)[C@H](CN(C)C(=O)CC1CC1)O2,inactive: 1.02
17,Cc1noc(C)c1NC(=O)Nc1ccc2c(c1)C(=O)N([C@@H](C)CO)C[C@H](C)[C@H](CN(C)Cc1ccc(C(F)(F)F)cc1)OCCCC[C@H](C)O2,inactive: 1.02
18,C[C@H]1CN([C@@H](C)CO)C(=O)c2cc(-c3ccncc3)cnc2O[C@@H]1CN(C)S(=O)(=O)c1ccccc1,inactive: 1.03
19,C=CCNC(=O)[C@H]1[C@@H]2C(=O)O[C@@H](c3ccccc3)[C@@H](c3ccccc3)N2[C@@H](c2ccc(O)cc2)[C@]12C(=O)Nc1ccc(C#Cc3ccc(OC)cc3)cc12,inactive: 1.04

row,SMILES,relative growth
1,CN1CCN(C(=O)C[C@H]2CC[C@@H]3[C@H](COc4ccc(NC(=O)C5CCCCC5)cc4C(=O)N3C)O2)CC1,inactive: 1
2,C[C@@H]1CCCCO[C@H](CN(C)C(=O)Nc2ccc(C(F)(F)F)cc2)[C@@H](C)CN([C@H](C)CO)C(=O)c2cc(NC(=O)NC3CCCCC3)ccc2O1,inactive: 1.02
3,CO[C@H]1CN(C)C(=O)c2cc(NS(=O)(=O)c3cn(C)cn3)ccc2OC[C@H](C)N(CCC(F)(F)F)C[C@H]1C,inactive: 0.973
4,Cc1ccc(S(=O)(=O)Nc2ccc3c(c2)CC(=O)N([C@@H](C)CO)C[C@H](C)[C@@H](CN(C)Cc2ccc(-c4ccccc4)cc2)O3)cc1,inactive: 0.977
5,C[C@@H]1CCCCO[C@H](CN(C)C(=O)CCCN(C)C)[C@H](C)CN([C@H](C)CO)C(=O)c2cc(NC(=O)Nc3cccc4ccccc34)ccc2O1,inactive: 1.01
6,C[C@@H]1CN([C@H](C)CO)C(=O)Cc2cc(NS(=O)(=O)c3cccs3)ccc2O[C@@H]1CN(C)S(=O)(=O)c1cccs1,inactive: 1.01
7,COc1ccc2c3c(n(c2c1)C)[C@H](CO)N(C[C@]13CN(C1)C(=O)c1ccccn1)S(=O)(=O)c1ccc(cc1)C,inactive: 1.03
8,C[C@@H]1CN([C@@H](C)CO)C(=O)Cc2cc(NC(=O)NC3CCCCC3)ccc2O[C@H]1CN(C)S(C)(=O)=O,inactive: 1.01
9,C[C@@H]1CNS(=O)(=O)CO1,inactive: 0.938
10,C[C@H]1CN([C@@H](C)CO)C(=O)c2cc(NC(=O)Nc3ccc(F)cc3)ccc2O[C@H]1CN(C)C(=O)Nc1ccc(C(F)(F)F)cc1,inactive: 0.971
11,C[C@@H]1CN([C@@H](C)CO)C(=O)c2cc(NS(=O)(=O)c3ccc(F)cc3)ccc2O[C@@H](C)CCCCO[C@H]1CN(C)Cc1ccc(C(F)(F)F)cc1,inactive: 0.982
12,C[C@H](CO)N1C[C@H](C)[C@H](CN(C)S(C)(=O)=O)OCCCC[C@H](C)Oc2ccc(NS(=O)(=O)c3ccc(F)cc3)cc2C1=O,inactive: 0.992
13,CC(=O)N1[C@@H](CO)[C@@H](c2ccccc2)C12CN(C(=O)CN1CCOCC1)C2,inactive: 1
14,CC(=O)[C@]12O[C@@]3(COC[C@H](c4ccccc4)N3C1=O)[C@H]1C(=O)N(C)C(=O)[C@H]12,inactive: 1.01
15,C[C@H]1CN([C@@H](C)CO)C(=O)c2cc(C#Cc3ccccn3)cnc2O[C@@H]1CN(C)C(=O)c1cnccn1,inactive: 0.974
16,C[C@H](CO)N1C[C@H](C)[C@@H](CN(C)C(=O)Nc2ccccc2)OCCCC[C@H](C)Oc2ccc(NC(=O)Nc3ccc(C(F)(F)F)cc3)cc2C1=O,inactive: 0.941
17,C[C@H](CO)N1C[C@H](C)[C@@H](CN(C)Cc2ccc3c(c2)OCO3)OCCCC[C@H](C)Oc2ccc(NC(=O)C3CCCCC3)cc2C1=O,inactive: 0.995
18,O=C(C[C@H]1CC[C@H]2[C@@H](COC[C@@H](O)CN2C(=O)c2cnccn2)O1)NCc1ccc(Oc2ccccc2)cc1,inactive: 0.98
19,C[C@@H]1CN([C@H](C)CO)C(=O)c2cc(NC(=O)CCC(F)(F)F)ccc2O[C@@H](C)CCCCO[C@@H]1CN(C)S(=O)(=O)c1cccs1,inactive: 1.03
